Sequences with one replicate were seen in a single cluster, so their values are uncertain.
System: ATP
Assay: switch fluorescence ratio, 500 uM ATP over buffer (Cy3 cluster intensity, sum of 5 cycles each) (fold (ratio)); higher = stronger signal-on switching upon ATP binding; sequences stand for … in TCGTCGGCAGCGTCAGATGTGTATAAGAGACAGTTTTTTTTTTTTTTTTTTTTTTTTT…TC
Conditions: aptamer strand: ATP DNA aptamer (quencher-CACCTGGGGGAGTATTGCGGAGGAAGG + anchor), 100 nM annealed; ATP concentration: 500 uM; one replicate
Outline: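 Exposure to 500 uM ATP lasted 15 min at 22 °C before imaging, and a selection-buffer image was taken beforehand, for Cy3-labelled switching-strand clusters on a modified Illumina MiSeq flow-cell annealed to 100 nM quencher-labelled ATP aptamer. Five buffer/ATP cycles were run with NaOH stripping and re-annealing between them. The fluorescence ratio per cluster is summed target-cycle over summed buffer-cycle Cy3 intensity, averaged per switch-domain sequence. Clusters outside 100-1000 RFU were excluded.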

| Sequence | switch fluorescence ratio |
| --- | --- |
| GTGAAGTCAG | 0.991 |
| GATCTTTCGG | 0.936 |
| CTATTTCCCA | 0.992 |
| AATGGGTAG | 1.02 |
| CGATCGTCCT | 1.01 |
| TCTCACATAT | 1.03 |
| GCGACCAGTG | 1.19 |
| TTGAGTAGGG | 0.977 |
| TAGGCTGTTC | 0.944 |
| ACTATACTTT | 1.25 |
| GTCTTTATCC | 1.01 |
| TTGCTTGTGC | 1.02 |
| GCCTGAAGAT | 0.973 |
| TAAATTCGGC | 0.984 |
| TATTGTGCGA | 1.03 |
| ATGGCGGACC | 0.983 |
| AATAGGCCTG | 0.951 |
| CTACAGGAAC | 1.05 |
| CACTTGCGAT | 1.08 |
| TTGCCAAAAT | 0.986 |
| GGTTCGTTAT | 0.98 |
| CAGAGCGTTT | 1.03 |
| TATATGAAAT | 0.942 |
| ACTGCCTCGG | 1.27 |
| TTCCTATTAC | 1.17 |
| CTCTTTGATG | 0.97 |

| Sequence | switch fluorescence ratio |
| --- | --- |
| TGGAGTTGGG | 0.971 |
| TCCCGAACAT | 1.05 |
| TGGGGACATA | 1.01 |
| ACCCAGATTT | 1.01 |
| AAAATGGAG | 1.43 |
| TAGATTGTAC | 1.03 |
| CCGCGCGAGG | 1.12 |
| GAGGTAGTC | 1.03 |
| TTGACCATAC | 1.55 |
| CGACTTGGGT | 1.06 |
| ACCTAGTCGC | 1.11 |
| GACTTCGATG | 0.96 |
| CCCCCAGTTT | 1.25 |
| GGGGCTCGTT | 0.976 |
| GTTCATAGAA | 1.04 |
| CCAACGTACC | 1.75 |
| TCACTAGCTC | 1.01 |
| TTTTGGTAT | 1.01 |
| TAGCTTGGGC | 0.999 |
| TCACAGAGGA | 1 |
| GTATGATAGA | 1.04 |
| CCTAGGATGG | 1.06 |
| GGAGTAAACA | 1.02 |
| TCCCAAAGGA | 0.982 |
| CTAGGCGGGA | 1 |
| CGGAACAAAT | 1.03 |

| Sequence | switch fluorescence ratio |
| --- | --- |
| AAGCTTAGTT | 0.994 |
| TTCAGTGTGT | 0.978 |
| GGTCCATAAT | 1.03 |
| CGGCTTAGCA | 1.01 |
| CTACAGAAGT | 1.04 |
| GAAGTTCTGA | 0.966 |
| AGTAGCCGA | 1.02 |
| GTTCATGGAC | 1 |
| AGGTCATTCT | 0.978 |
| TGTCGTGCCA | 0.995 |
| TCATCGCCCG | 0.952 |
| AGTTGCTGCG | 0.983 |
| CGATAATCCG | 0.899 |
| ACGGGGTAGG | 1.01 |
| CGCAGTGTCT | 1.04 |
| TCTGATTCCT | 1.03 |
| ATGGATAATC | 0.985 |
| AATTCAACGG | 1.02 |
| GTGAGGTGGC | 1.1 |
| CAACCAAAGG | 0.998 |
| ACGGCCTTAC | 2.29 |
| GTCGGTCCG | 1.03 |
| CATGGTCCGG | 0.993 |
| GAGGGAGACT | 0.996 |
